For part of its entries the source gives two or more results. The other results are left out here. There may be further records. The values listed for one entry are repeated measurements across runs, samples, wells, individuals or studies. Records carry a tag for their origin. A, B and so on number the origins entry by entry.

These results are taken from ChEMBL document CHEMBL3885881, “DrugMatrix”.

The species named for the series is Rattus norvegicus. Description: DrugMatrix - Regimen: Daily Repeat. Also on record: regimen Daily Repeat, gender Male, age 6-8 weeks. It is filed as toxicity, organism-based, Sprague-Dawley. The following applies: in vivo, po, 0 mg/kg, 72 h, route oral GAVAGE, dose level Control, time 3 day, vehicle 100 % SALINE.

As for `CN(C)C=O` [DIMETHYLFORMAMIDE], where the note is “tissue Blood”, the “ABSOLUTE EOSINOPHIL” value is 0 CELLS/uL [study A] and 66 CELLS/uL [study B]; the “ABSOLUTE MONOCYTE” value was 103.5 CELLS/uL [study A] and 401.5 CELLS/uL [study B]. In addition, under “tissue Plasma”, the “LACTATE DEHYDROGENASE” value is 513.5 u/L [study A] and 88.17 u/L [study B].
